Measured values published in the RNAGym collection of RNA variant scans (doi:10.7554/elife.90254).
Read counts are not given, so values of variants with three or more changes are uncertain.

B1: LINE1-full (parent)
chain: UACGUAGGUGGUUUUCCCCUGAUAGUGCUAAGGGGGCCUGGAAGUUUGGACUGGGCAGAGCUCAACACAGCGUGGCAAAGUGGCUGUGGCUAGACUGCCUCUCUGGAUUCCUCGUCACUCAGCAGGGCAUCUCUGAGAGAAAUGCC

Variants of: B1
Assay: self-cleavage, relative activity (ratio to wild type); higher = more cleavage; in vitro, sequencing; the parent is a self-cleaving ribozyme

Variant	self-cleavage
UACGUAGGAGGUUUUCCCCUGAUAGUGCUAAGGGGGCCUGGAAGUUUGGACUGGGCAGAGCUCAACACAGCGUGGCAAAGUGGCCGUGGCUAGACUGCCUCUCUGGAUUCCUCGUCACUUAUCAGGGCAUCUCUGAGAGAAAUGCC [U9A U85C C120U G122U]	0.17
UACGUAGGCGGUUUUCCCCUGAUAGUGCUAUGGGGGCCUGGAAGUUUGGACUGGGCAGAGCUCAACACAGCGUGGCAAAGUGGCUGUGGCUAGACUGCCUCUCUGGGUUCCUCGUCACUCAGCAGGGCAUCUCUGAGAGAAAUGCC [U9C A31U A107G]	2.35
UACGUAGGAGGUUUUCCCCUGAUAGUGCUAAGGGGGCCUGGAAGUUUGGACAGGGCAGAGCUCAACACAGCGUGGCAAAGUGGCUGCGGCUAGACUGCCUCUAUGGAUUCCUCGUCACUCAGCAGGGCAUCUCUGAGAGAAAUACC [U9A U52A U87C C103A G144A]	0.31
UACGUAGGAGGUUUUCCCCUGAUAGUGCUAAGGGGGCCUGGAAGUUUGGACUGGGCAGAGCCCAACACAGCGUGGCAAAGUGGCUGUGGCUAGACUGCCUCUCUGGACUCCUCGUCACUCAGCAGGGCAUCUCUGAGAGAAAUGCC [U9A U62C U108C]	0
UACGUAGGAGGUUUUCCCCUGAUAGUGCUAAGGGGGCCUGGAAGUUUGGACUGGGCAGAGCUCAACACAGCGCGGCAAAGUGGCUGCGGCUAGACUGCCUCUCUGGAUUCCUCGUCACUCAGCAGGGCAUCUCUGAGAGAAAUGCC [U9A U73C U87C]	0
UACGUAGGAGGUUUUCCCCUGAUAGUGCUAAGGGGGCCUGGAAGUUUGGACUGGGCAGAGCUCAACACAGCGUGGCAAAGUGGCUGUGGCUAGACUGCCUCUCUGGAUUCCUCGUCACUCAGCAGGGCAUCUCUGAGAGAAACGCA [U9A U143C C146A]	0.74
UACGUAGGAGGUUUUCCCCUGAUAGUGCUAAGGGGGCCUGGAAGUUUGGACUGGGCAGAGCUCAACACAGCGUGGCAAAGUGGCAGUGGCUAGACUGCCUCUCUGGUUUCCUCGUCACUCAGCAGGGCAUCUCUGAGAGAAAUGCC [U9A U85A A107U]	0.25
UACGUAGGCGGUUUUCCCCUGAUAGUGCUACGGGGGCCUGGAAGUUUGGACUGGGCAGAGCUCAACACAGCGUGGCAAAGUGGCUGUGGCUAGACUGCCUCUCUGGAUUCCUCGUCACUCAGCAGGGCAUCUCUGAGAGAGAUGCC [U9C A31C A141G]	0.26
UACGUAGGCGGUUUUCCCCUGAUAGUGCUAUGGGGGCCUGGAAGUUUGGACUGGGCAGAGCUCAACACAGCGUGGCAAAGUGGCUGUGGCUAGACUGCCUCUCUGGAUUCCUCGUCACUCAGCAGGGCACCUCUGAGAGAAAUGCC [U9C A31U U130C]	1.28
UACGUAGGAGGUUUUCCCCUGAUAGUGCUAAGGGGGCCUGGAAGUUUGGACUGGGCAGAGCCCAACUCAGCGUGGCAAAGUGGCUGUGGCUAGACUGCCUCUCUGGACUCCUCGUCACUCAGCAGGGCAUCUCUGAGAGAGAUGCC [U9A U62C A67U U108C A141G]	0
UACGUAGGCGGUUUUCCCCUGAUGGUGCUAAGGGGGCCUGGAAGUUUGGACUGGGCAGAGCUCAACACAGCGUGGCAAAGAGGCUGUGGCUAGACUGCCUCUCUGGAUUCCUCGUCACUCAGCAGGGCAUCUCUGAGAGAAAUGCC [U9C A24G U81A]	1.31
UACGUAGGAGGUUUUCCCCUGAUAGUGCUAAGGGGGCCUGGAAGUUCGGACUGGGCAGAGCUCAACACAGCGUGGCAAAGUGGCUGUGGCUAGACUGCCUCUCUGGAGUCCUCGUCACUCAGCAGGGCAUCUCUGAGAGAAAUGCC [U9A U47C U108G]	1.23
UACGUAGGCGGUUUUCCCCUGAUAGUGCUGAGGGGGCCUGGAAGUUUGGACUGGGCAGAGCACAACACAGCGUGGCAAAGUGGCUGUGGCUAGACUGCCUCUCUGGAUUCCUCGUUACCCAGCAGGGCAUCUCUGAGAGAAAUGCC [U9C A30G U62A C116U U119C]	0
UACGUAGGCGGUUUUCCCCUGUUAGUGCUAAGGGGGCCUGGAAGUCUGGACUGGGCAGAGCUCAACACAGCGUGGCAAAGUGGCUGUGGCUAGACUGCCUCUCUGGAUUCCUCGUCACUCAGCAGGGCAUCUCUGAGAGAAAUGCC [U9C A22U U46C]	1.44
UACGUAGGAGGUUUUCCCCUGAUAGUGCUAAGGGGGCCUGGAAGUUUGGACAGGGCAGAGCUCAACACAGCGUGGCAGAGUGGCUGUGGCUAGACUGCCUCUCUGGGUUCCUCGUCACUCAGCAGGGCAUCUCUGAGAGAAAUGCC [U9A U52A A78G A107G]	0
UACGUAGGAGGUUUUCCCCUGAUAGUGCUAAGGGGGCCUGGAAGUUUGGACUGGGCAGAGCUCAACACAGCGAGGCAAAGUGGCUGUGGCUAGACUGCCUCUCUGGAUUCCUCGUCACUCAGCAGGGCAUCUCUGAGAGAGAUGCC [U9A U73A A141G]	1.61
UACGUAGGCGGUUUUCCCCUGAUAGUGCUAGGGGGGCCUGGAAGUUUGGACUGGGCAGAGCUCAACACAGCGUGGCAAAGUGGCUGUGGCUAGGCUGCCUCUCUGGAUUCCUCGUCACUCAGCAGGGCAUCUCUGAGAGAAAAGCC [U9C A31G A94G U143A]	0
UACGUAGGCGGUUUUCCCCUGAUAGUGCUAAGGGGGCCUGGGAGUUUGGACUGGGCAGAGCUCCACACAGCGUGGCAAAGUGGCUGUGGCUAGACUGCCUCUCUGGAUUCCUCGUCACUCAGCAGGGCAUCUCUGAGAGAAAUGCC [U9C A42G A64C]	0.96
UACGUAGGCGGUUUUCCCCUGAUAGUGCUAGGAGGGUCUGGAAGUUUGGACUGGGCUGAGCUCAACACAGCGUGGCAAAGUGGCUGUGGCUAGACUGCCUCUCUGGAUUCCUCGUCACUCAGCAGGGCAUCUCUGAGAGAAAUGCC [U9C A31G G33A C37U A57U]	0.22
UACGUAGGAGGUUUUCCCCUGAUAGUGCUAAGGGGGCCUGGAAGUUUGGACAGGGCAGAGCUCUACACAGCGUGGCAAAGUGGCUGUGGCUAGAUUGCCUCUCUGGAUUCCUCGUCACUCAGCAGGGCAUCUCUGAGAGAAAUGCC [U9A U52A A64U C95U]	0.13

Variant	self-cleavage
UACGUAGGAGGUUUUCCCCUGAUAGUGCUAAGGGGGCCUGGAAGUUUGGACUGGGCAGAGCUCAACACAGCGUGGCAAAGUGGCUGUGGCCAGACCGCCUCUCUGGAUUCCUCGUCACUCAGCAGGGCAUCUCUGAGAGAAAUGCC [U9A U91C U96C]	0.29
UACGUAGGAGGUUUUCCCCUGAUAGUGCUAAGGGGGCCUGGAAGUUUGGACUGGGCAGAGCUCAACACAGCGUGGCAAAGUGGCUGUGGCUAGACUGCCGCUCUGGAUUCCUCGUCACACAGCGGGGCAUCUCUGAGAGAAAUGCC [U9A U100G U119A A124G]	1.84
UACGUAGGCGGUUUUCCCCUGGUAGUGCUAAGGGGGCCUGGAAGUUUGGACUGGGCAGAGCUCUACACAGCGUGGCAAAGUGGCUGUGGCUAGCCUGCCUCUCUGGAUUCCUCGUCACUCAGCAGGGCAUCUCUGAGAGAAAUGCC [U9C A22G A64U A94C]	0
UACGUAGGCGGUUUUCCCCUGAUUGUGCUAAGGGGGCCUGGAAGUUUGGACUGGGCAGAGCUCAACACAGCGUGGCGAAGUGGCUGUGGCUAGACUGCCUCUCUGGAUUCCUCGUCACUCAGCAGGGCAUCUCUGAGAGAAAUGCC [U9C A24U A77G]	2.37
UACGUAGGAGGUUUUCCCCUGAUAGUGCUAAGGGGGCCUGGAAGUUUGGACUGGGCAGAGCUCAACACAGCGUGGCAAAGUGGCUGUGGCUAGACUGCCUCUCUGGAUUCCUCGUCACACAGCAGGGCAUCCCUGAGAGAAAUGCC [U9A U119A U132C]	0.28
UACGUAGGAGGUUUUCCCCUGAUAGUGCUAAGGGGGCCUGGAAGUUUGGACUGGGCAGAGCCCAACACAGCGUGGCAAAGCGGCUGUGGCUAGACUGCCUCUCUGGAUUCCUCGUCACUCAGCAGGGCAUCUCUGAGAGAAAUGCC [U9A U62C U81C]	0.14
UACGUAGGAGGUUUUCCCCUGAUAGUGCUAAGGGGGCCUGGAAGUUUGGACUGGGCAGAGCUCAACACAGCGUGGCAAAGUGGCUGUGGCUAGACUGCCUCUCUGGAUCCCUCGACACUCAGCAGGGCAUCUCUGAGAGAAAUGCC [U9A U109C U115A]	0.96
UACGUAGGAGGUUUUCCCCUGAUAGUGCUAAGGGGGCCUGGAAGUUUGGACUGGGCAGAGCCCUACACAGCGUGGCAAAGUGGCUGUGGCUAGACUGCCUCUCUGGAUUCCUCGUCACUCAGCAGGGCAUCUCUGAGAGAAAUGCC [U9A U62C A64U]	0.07
UACGUAGGAGGUUUUCCCCUGAUAGUGCUAAGGGGGCCUGGAAGUUUGGACUGGGCAGAGCUCAACACAGCGUGGCAAAGUGGCUGUGGCUAGACCGCCUCUCUGGACUCCUCGUCACUCAGCAGGGCAUCUCUGAGAGAAAUGCC [U9A U96C U108C]	0.21
UACGUAGGAGGUUUUCCCCUGAUAGUGCUAAGGGGGCCUGGAAGUUUGGACUGGGCAGAGCACAACACAGCGUGGCAAAGUGGCUGUGGCUAGACUGCCUCUCUGGUUUCCUCGUCACUCAGCAGGGCAUCUCUGAGAGAAAUGCC [U9A U62A A107U]	0.05
UACGUAGGAGGUUUUCCCCUGAUAGUGCUAAGGGGGCCUGGAAGUUUGGACUGGGCAGAGCUCAACACAGCGUGGCAAAGUGGCUGAGGCUAGACUGCCUCUCUGGAUUCCUCGUCACUCUGCAGGGCAUCUCUGAGAGAAAUGCC [U9A U87A A121U]	0.09
UACGUAGGAGGUUUUCCCCUGAUAGUGCUAAGGGGGCCUGGAAGUUUGGACUGGGCAGAGCCCAACACAGCGUGGCAAAGUGGCUGUGGCUAGACUGCCUCUCUGGAUUCCUCGUCACUCGGCAGGGCAUCUCUGAGAGAAAUACC [U9A U62C A121G G144A]	0
UACGUAGGCGGUUUUCCCCUGUUAGUGCUAAGGGGGCCUGGAAGUUUGGACUGGGCAGAGCUCAACACAGCGUGGCAAAGUGGCUGUGGCUAGACUGCCUCUCUGGAUUCCUCGUCACUCAGCAGGGCAUCUCUGAGGGAAAUGCC [U9C A22U A138G]	1.41
UACGUAGGAGGUUUUCCCCUGAUAGUGCUAAGGGGGCCUGGAAGUUUGGACUGGGCAGAGCUCAACACAGCGUGGCAAAGUGGCUGUGGCUAGACUGCCUCUCUGGACUCCUCGUCACUCAGCAGGGCAUCUCUGAGAGAAACGCC [U9A U108C U143C]	2.16
UACGUAGGCGGUUUUCCCCUGGUAGCGCUAAGGGGGCCUGGAAGUUUGGACUGGGCAGAGCUCAACACAGCGUGGCAAAGUGGCUGUGGCUAGACUGCCUCUCUGGGUUCCUCGUCACUCAGCAGGGCAUCUCUGAGAGAAAUGCC [U9C A22G U26C A107G]	0
UACGUAGGCGGUUUUCCCCUGAUAGUGCUAUGGGGGCCUGGAAGUUUGGACUGGGCAGAGCUCAACACAGCGUGGCAAAGUGGCUGUGGCUAGACUGCCUCUCUGGAUUCCUCGACACCCAGCAGGGCAUCUCUGAGAGAAAUGCC [U9C A31U U115A U119C]	0.32
UACGUAGGCGGUUUUCCCCUGAUGGUGCUAAGGGGGCCUGGAAGUUUGGACUGGGCAGAGCUCAACACAGCGUGGCAAAGUGGCUGUGGCUAGACUGCCUCUCUGGAUUCCUCGUCACUCAGCAAGGCAUCUCUGAGAGAAAUGCC [U9C A24G G125A]	0.65
UACGUAGGCGGUUUUCCCCUGAUAGUGCUAGGGGGGCCUGGAAGUUUGGACUGGGCAGAGCUCGACACAGCGUGGCAAAGUGGCUGUGGCUAGACUGCCUCUCUGGAUUCCUCGCCACUCAGCAGGGCAUCUCUGAGAGAGAUGCC [U9C A31G A64G U115C A141G]	1.02
UACGUAGGAGGUUUUCCCCUGAUAGUGCUAAGGGGGCCUGGAAGUUUGGACUGGGCAGAGCUCAACACAGCGUGGCAAAGUGGCAGUGGCUAGACUGCCUCUCUGGAUUCCUCGUCACUCAGCAGGGCAUCUCUGAGAGGAAUGCC [U9A U85A A140G]	0.11
